Experimental data from PubChem BioAssay AID488969 (Vanderbilt High Throughput Screening Facility, 2010).
Over roughly 110,000 compounds, “z-score” has its median near -0.1; the highest 2% begin near 2. The list shows a part of the results. Active and inactive are the calls of the source.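 Rule for the calls: active = z-score in the third read window above 3 or below -3; inactive = the rest.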

Biological target: Metabotropic glutamate receptor 8 (Rattus norvegicus) (UniProt P70579)
Assay: mGluR8 Gi/Go-coupled signaling modulation – cell-based, rat, thallium flux, HTS, primary screen (AID 488969)
Settings: HEK293 rat mGluR8, GIRK (G protein-gated inwardly rectifying potassium channel) thallium flux, FluoZin2; at 10 µM; stronger effect = higher value; submaximal glutamate (EC20) added with thallium

UniProt P70579, sequence (P70579 whole entry, looked up): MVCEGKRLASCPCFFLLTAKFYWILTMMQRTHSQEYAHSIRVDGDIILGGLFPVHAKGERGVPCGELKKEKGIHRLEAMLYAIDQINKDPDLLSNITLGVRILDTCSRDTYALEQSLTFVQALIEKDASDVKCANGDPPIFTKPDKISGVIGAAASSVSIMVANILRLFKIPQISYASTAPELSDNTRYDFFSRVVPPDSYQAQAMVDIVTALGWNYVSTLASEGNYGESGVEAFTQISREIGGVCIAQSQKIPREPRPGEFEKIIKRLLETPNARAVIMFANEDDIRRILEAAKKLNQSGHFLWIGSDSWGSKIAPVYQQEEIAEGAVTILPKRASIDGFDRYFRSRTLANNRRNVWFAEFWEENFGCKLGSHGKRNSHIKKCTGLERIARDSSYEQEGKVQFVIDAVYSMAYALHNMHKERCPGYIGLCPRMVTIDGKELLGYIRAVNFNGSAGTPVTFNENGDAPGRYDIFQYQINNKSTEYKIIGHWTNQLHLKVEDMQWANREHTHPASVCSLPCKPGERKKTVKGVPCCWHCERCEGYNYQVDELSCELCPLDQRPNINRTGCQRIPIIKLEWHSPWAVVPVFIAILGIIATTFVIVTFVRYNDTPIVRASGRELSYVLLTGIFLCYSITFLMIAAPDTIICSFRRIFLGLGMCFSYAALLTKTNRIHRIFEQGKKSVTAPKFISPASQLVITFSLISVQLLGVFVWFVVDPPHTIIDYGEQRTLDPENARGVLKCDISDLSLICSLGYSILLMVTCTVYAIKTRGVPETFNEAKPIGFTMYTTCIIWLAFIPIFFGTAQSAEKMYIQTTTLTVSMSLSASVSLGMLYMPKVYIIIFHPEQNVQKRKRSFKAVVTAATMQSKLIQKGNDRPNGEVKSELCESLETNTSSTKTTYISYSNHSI

Compound	z-score
CCOc1ccc2nc(SCC(=O)N3CCCCCC3)c(C#N)cc2c1	0.241
COc1ccc(N2CCN(c3ncnc4c3cnn4-c3ccc(C)cc3C)CC2)cc1	-0.495
COc1ccc(C(=O)NCCSc2ccc(C)cc2)cc1	-0.404
O=C(NCCN1CCOCC1)c1cc(-c2cccs2)on1	-1.2
Cc1ccc(C(OC(=O)c2ccco2)C(=O)NC2CCCCC2)cc1 (configuration not stated)	1.4
COc1ccccc1NC(=O)c1ccc(NC(=O)COC(=O)CC(NC(=O)c2ccccc2Cl)c2ccccc2)cc1 (configuration not stated)	-0.112
COc1ccccc1N1CCN(C(=O)CCNS(=O)(=O)c2ccc(Br)s2)CC1	-0.0521
NC(=O)c1ccc[n+](Cc2ccccc2)c1	-0.151
C=CCn1cc(-c2cccc(Cl)c2)cc(C#N)c1=O	-0.221
O=C(Nc1ccc2c(c1)nc1n2CCOC1)C1CCCCC1	0.0939
CCN(CC)CCNc1ccc(Cl)cc1[N+](=O)[O-]	0.418
COc1ccccc1NC(=O)c1cc2n(n1)C(C(F)(F)F)CC(c1ccc3c(c1)OCO3)N2 (configuration not stated)	-0.0221
Cc1nn(-c2ccc(F)cc2)c(Cl)c1/C=C1\C(=O)Nc2ccccc21	-0.367
Cc1nn(C(C)c2nc(-c3ccccc3)no2)c(C)c1[N+](=O)[O-] (configuration not stated)	-0.432
Cc1cc(Cl)c(S(N)(=O)=O)cc1OCC(N)=O	0.0973
Cc1ccc(-c2nn(-c3cc(Cl)ccc3[N+](=O)[O-])c(=O)c3ccccc23)cc1	-0.423
Cc1ccc(C)n1-c1nc(=S)[nH][nH]1	-0.129
O=C(NC1CCCCC1)C1CC(=O)N(c2ccc(Cl)cc2)C1 (configuration not stated)	-0.558
COc1ccc(C(=O)N/N=C/C(C)c2ccccc2)cc1OC (configuration not stated)	-0.491
Cc1ccccc1Nc1cc(=O)oc2ccccc12	-0.248
COc1ccc(CCNC(=O)/C(=C/c2cccnc2)NC(=O)c2ccccc2)cc1	-0.177
N#Cc1cc2c(nc1Cl)CCCC2	0.0855
O=C(Nc1cc(S(=O)(=O)N2CCOCC2)ccc1O)c1ccco1	-0.157

Compound	z-score
CCSc1cc(C2C(C(=O)OC)=C(C)NC3=C2C(=O)CCC3)c(C)o1 (configuration not stated)	-0.493
O=C(Nc1cnn(Cc2ccc(F)cc2)c1)c1cnccn1	0.166
O=C(NN1C(=O)C2C3C=CC(O3)C2C1=O)c1cccc(O)c1 (configuration not stated)	0.0539
Cc1ccc(NC(=O)c2c([N+](=O)[O-])c(C(C)(C)C)nn2C)c(C)c1	-0.094
COc1ccc(Br)cc1/C=C/C(=O)c1ccc(NC(C)=O)cc1	-0.385
COc1cccc(-c2cc(C(=O)O)[nH]n2)c1	0.00896
CCC1CCC(c2nnc(-c3ccc(Br)cc3)o2)CC1 (configuration not stated)	-1.29
CCN(CC)CCOc1c(Br)ccc2c1sc1nc3n(c(=O)c12)CCC3	0.601
Cc1cccc(/C=N/NC(=O)NC2CCCCC2)c1	-0.122
COc1ccccc1OCCNC(=O)c1ccc(S(=O)(=O)N(C)C)cc1	0.0014
CCOC(=O)N1CCN(c2nc(-c3ccc(F)cc3)cs2)CC1	-0.404
Fc1ccc(C(CCCn2nnc(-c3cccnc3)n2)c2ccc(F)cc2)cc1	1
O=C(CC1SC(=O)N(Cc2cccc3ccccc23)C1=O)Nc1nccs1 (configuration not stated)	-0.096
Oc1ccc(CNc2ccccc2)c2cccnc12	0.0879
Cc1cc(CSc2ccccc2)ccc1NC(=O)COc1ccccc1	0.0643
Cc1cc(C)nc(N2CCC(C(=O)NCc3ccccc3)CC2)n1	-0.292
COc1cc(S(=O)(=O)Nc2cccc(C)c2)ccc1NC(=O)c1ccncc1	0.196
COc1cccc(-c2nnc3n2N=C(C(C)(C)C)CS3)c1	-0.615
O=C(Nc1nnc(-c2ccccc2)o1)C1CCCCC1	0.0922
CCNC(=O)C12CCC(C)(C(=O)C1Br)C2(C)C (configuration not stated)	-0.13
CCOC(=O)Cc1csc(NC(=O)Nc2ccccc2)n1	active: 3.05
O=C(CN1C(=O)c2ccccc2S1(=O)=O)N1CCc2ccccc2C1	-0.0825
Cc1nn(Cc2ccccc2)c(N)c1C#N	-0.0342

Compound	z-score
C/C(Cn1nnc([N+](=O)[O-])n1)=N\NC(=O)c1ccc(Cl)c(Cl)c1	0.223
CC(C)C(=O)Nc1nnc(Sc2ccc(N(C)C)cc2)s1	-0.137
NNc1nc2ccc(Cl)cc2s1	-0.169
O=C(CN1CCOCC1)Nc1ccc(-c2nc3ccccc3[nH]2)cc1	-0.309
CCCCCc1nnc(NS(C)(=O)=O)s1	-0.0105
CCC1Oc2ccccc2N(CC(=O)NCCc2ccc(OC)c(OC)c2)C1=O (configuration not stated)	-0.997
CCOc1ccc(NCC(=O)N/N=C/C=C/c2ccccc2)cc1	-0.235
O=C(c1cc2ncc(Br)cn2n1)N1CCN(C(=O)c2ccco2)CC1	0.428
NNc1nc(-c2ccccc2)nc2sc3c(c12)CCCC3	-0.194
Cc1nnc(NC(=O)CSc2cn(CCNC(=O)c3ccccc3)c3ccccc23)s1	-0.0495
COc1cc2c(cc1OC)CN(C(=O)COc1ccc(C#N)cc1)CC2	0.0723
COc1ccccc1/C=C/C=N/NC(=O)Cc1cccn1C	-0.14
Cc1ccc2[nH]c(=O)c(C(c3nnnn3C(C)(C)C)N(Cc3ccco3)CC3CCCO3)cc2c1 (configuration not stated)	-0.11
COc1cccc(C(=O)N2CCN(C(=O)c3cccs3)CC2)c1OC	-0.02
COC(=O)c1sccc1NC(=O)CSc1cccc(Cl)c1Cl	-0.0544
CCn1c(O)c(/C=N/N=C/c2ccccc2)c2ccc(C3=NNC(=O)CC3)cc21	-0.86
Cc1ccc(OCC(=O)OCC(=O)c2c(N)n(C)c(=O)n(C)c2=O)cc1C	-0.0815
CCCCN(CC)Cc1ccc(CNC(=O)Nc2ccc(F)cc2)o1	0.401
Nc1cccnc1Sc1cccc(Cl)c1	0.183
COc1ccc(OC)c(NC(=O)Nc2ccc(Cl)cc2)c1	0.245
Cc1ccc(C(=O)Nc2cnc3sc(C)nn3c2=O)cc1	0.366
Cc1ccc2nc(NC(=O)c3ccc4c(c3)OCO4)sc2c1	-0.0885
CCOC(=O)C1=C(C)NC2=C(C(=O)CCC2)C1c1ccc(O)c(OCC)c1 (configuration not stated)	0.423

Compound	z-score
Cc1cc(C)c(C#N)c(SCC(=O)N2CCCCC2)n1	-0.063
Cc1cc(C)n(-c2ccc(C(=O)Oc3ccc4c(c3)OCO4)cc2)n1	0.31
CCCn1c(SCC(=O)c2ccc3c(c2)NC(=O)CO3)nc2ccccc21	0.211
CN(Cc1nc(-c2cccnc2)no1)S(=O)(=O)c1ccc2ccccc2c1	0.505
CCCCCC(=O)Nc1nc(C)c(-c2csc(Nc3ccccc3OC)n2)s1	-0.163
CC(C)Oc1ccc(N2CC(C(=O)Nc3ccc(N4CCOCC4)cc3)CC2=O)cc1 (configuration not stated)	0.469
COc1ccc(C(=O)CN2CCN(c3ccc(F)cc3)CC2)cc1OC	-0.00189
Cc1cc(C(=O)N(C2CCCCC2)C2CCCCC2)no1	-0.0698
Cc1nn(CC(=O)OCC(=O)Nc2c(C(C)C)cccc2C(C)C)c(C)c1[N+](=O)[O-]	-0.262
C=CCSc1nc(NC)c2sccc2n1	-0.598
CCOc1ccc(CN(Cc2ccco2)S(=O)(=O)c2ccc(-n3cnnn3)c(OC)c2)cc1	2.75
COc1ccc(C(=O)Nc2ccc(OC)c(OC)c2)cc1	-0.33
CCOc1ccc(C(=O)Nc2cc(C)on2)cc1OCC	-0.041
COc1ccc(S(=O)(=O)N2CCN(C(=O)Cc3cccs3)CC2)cc1	0.11
Cc1cccc(N2CN(Cc3cccnc3)CNC2=S)c1C	-0.278
CCSc1nccc(-c2nn(-c3ccc(C)cc3)ccc2=O)n1	-0.634
CC1CCc2nc(NC(=O)CN3CCN(Cc4ccc5c(c4)OCO5)CC3)sc2C1 (configuration not stated)	2.47
CCOc1ccc2nc(N3C(=O)/C(=C/c4ccccc4)NC3=S)sc2c1	active: 3.66
Nc1nc(Nc2cccc(C(F)(F)F)c2)nc(C(F)(F)F)n1	-0.205
Cc1ccc(C)c(N2C(=O)c3ccc(C(=O)OCC(=O)c4c(N)n(C)c(=O)n(C)c4=O)cc3C2=O)c1	0.0527
Cc1cc(C)nc(N/C(=N\S(=O)(=O)Cc2ccccc2)Nc2cccc(Cl)c2C)n1	-0.996
Cc1ccc(/C=N/n2c(-c3cccnc3)n[nH]c2=S)s1	-0.311
CCOC(=O)C1=C(C)N(C)C(C)=C(C(=O)OCC)C1c1ccc(Cl)cc1	-0.177

Compound	z-score
Cc1c(Br)cc(-c2nnco2)cc1Br	-0.16
O=C(O)CSC(NC(=O)c1cccnc1)(C(F)(F)F)C(F)(F)F	-1.1
O=C(CCCNC(=O)/C(=C/c1ccccc1F)NC(=O)c1ccccc1)OCc1ccccc1	-0.128
CCOC(=O)c1c(C)[nH]c(C)c1C(=O)CSc1nnc(-c2ccco2)n1Cc1ccccc1	-1.07
CCC(C(=O)OCC(=O)Nc1c(Cl)cccc1Cl)c1ccccc1 (configuration not stated)	-1.35
O=C(OCc1nnc(-c2ccc(Cl)cc2)o1)c1ccc(=O)n(Cc2ccccc2)n1	-0.645
Cc1ccccc1Cn1c2ccccc2c2cnn(CC(=O)N3CCN(c4ccccc4)CC3)c(=O)c21	0.371
Cc1ccc(OCC(=O)c2cc(C)n(C)c2C)c([N+](=O)[O-])n1	-0.137
Cc1ccc(-c2csc3ncnc(Nc4ccc(N5CCOCC5)cc4)c23)cc1	0.0875
CCCOc1ccc(NCC(=O)Nc2ccc(C)cc2C)cc1	-0.432
COc1ccc(CCNC(=O)/C(C#N)=C2\N=C(NC(=O)c3cccs3)c3ccccc32)cc1	-0.179
CC(=O)N1CCN(CC(=O)Nc2ccc(SC(F)F)cc2)CC1	-0.0272
O=C(/C=C/c1ccc(Cl)cc1Cl)NC(=S)Nc1ccc(CN2CCOCC2)cc1	0.0804
O=C(Nc1nc(N2C(=O)c3ccccc3C2=O)n(-c2ccccc2)n1)c1ccc(Cl)cc1	-0.0149
CCc1ccc(NS(=O)(=O)c2cc(OC)ccc2OC)cc1	-0.868
Cc1ncsc1CCOC(=O)C1C2CC3CC(C2)CC1C3 (configuration not stated)	0.00939
Cc1csc(NC(=O)CSc2nnc(CCNC(=O)c3cccs3)n2C)n1	-0.0983
Cc1ccc(C(=O)Oc2cc(C)n(C)c(=O)c2)cc1	-0.267
COc1ccc(CNCCC(c2ccc(OC(C)C)cc2)C(C)C)cc1OC (configuration not stated)	0.535
O=C(O)C1C(c2ccccc2)C(C(=O)Oc2ccc(O)cc2)C1c1ccccc1 (configuration not stated)	-0.507
